# Screen size: about 310,000 compounds; about 14,000 (4.5%) showed an effect of 50% or more. The effect is printed as a negative number. This is one part of the list.
# Target: human ether-à-go-go-related gene (hERG) potassium channel (human, UniProt Q12809)
# Test: primary screen, population patch clamp on CHO cells stably expressing hERG
# 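Also: peak tail current of the secondary pulse compared with the same well before compound.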
# human ether-à-go-go-related gene (hERG) potassium channel, sequence (Q12809 whole entry, looked up): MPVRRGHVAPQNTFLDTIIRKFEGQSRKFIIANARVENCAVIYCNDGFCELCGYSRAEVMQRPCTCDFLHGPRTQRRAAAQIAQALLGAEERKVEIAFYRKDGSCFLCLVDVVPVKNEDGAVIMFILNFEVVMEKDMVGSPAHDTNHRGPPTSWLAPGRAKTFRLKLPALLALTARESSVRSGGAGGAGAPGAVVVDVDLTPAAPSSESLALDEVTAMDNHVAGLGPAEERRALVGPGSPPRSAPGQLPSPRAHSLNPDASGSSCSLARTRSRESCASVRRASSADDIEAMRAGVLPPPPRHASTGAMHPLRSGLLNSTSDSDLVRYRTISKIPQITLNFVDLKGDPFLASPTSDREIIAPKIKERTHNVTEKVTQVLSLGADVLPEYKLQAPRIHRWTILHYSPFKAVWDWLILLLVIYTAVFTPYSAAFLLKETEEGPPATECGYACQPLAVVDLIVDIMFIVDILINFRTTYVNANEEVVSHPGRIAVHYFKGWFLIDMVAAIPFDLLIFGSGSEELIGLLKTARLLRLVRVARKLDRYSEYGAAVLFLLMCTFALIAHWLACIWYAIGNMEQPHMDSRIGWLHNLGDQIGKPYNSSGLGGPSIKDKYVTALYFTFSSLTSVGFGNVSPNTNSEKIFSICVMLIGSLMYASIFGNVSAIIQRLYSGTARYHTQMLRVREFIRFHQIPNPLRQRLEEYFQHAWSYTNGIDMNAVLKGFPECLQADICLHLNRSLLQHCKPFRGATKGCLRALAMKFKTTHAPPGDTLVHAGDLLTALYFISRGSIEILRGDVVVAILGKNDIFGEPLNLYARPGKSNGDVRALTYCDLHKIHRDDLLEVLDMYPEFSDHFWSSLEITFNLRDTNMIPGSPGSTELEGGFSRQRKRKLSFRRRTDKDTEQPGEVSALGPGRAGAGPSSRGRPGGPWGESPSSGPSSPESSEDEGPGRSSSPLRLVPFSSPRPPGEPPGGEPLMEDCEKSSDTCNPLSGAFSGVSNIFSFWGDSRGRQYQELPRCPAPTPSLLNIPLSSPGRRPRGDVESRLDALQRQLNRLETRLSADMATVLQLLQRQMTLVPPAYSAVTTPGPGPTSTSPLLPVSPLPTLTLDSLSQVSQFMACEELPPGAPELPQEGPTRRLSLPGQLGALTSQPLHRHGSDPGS
row,Compound,"hERG current change (%, negative = inhibition) at 10uM [%]"
1,CC1CC(C)CN(C(=O)C(NS(=O)(=O)c2ccc3c(c2)oc(=O)n3C)C(C)C)C1 (stereo not drawn),-9.31
2,COC(=O)C1=C(N)OC2=C(C(=O)CC(C)(C)C2)C1c1cc2c(cc1Cl)OCO2 (stereo not drawn),-2.53
3,COc1ccc(C(=O)Nc2cccc(/C(C)=N/NC(=O)c3ccc([N+](=O)[O-])c(C)c3)c2)cc1OC,-20
4,O=C(CN1CCN(c2ccccc2F)CC1)NCc1ccccc1,-0.288
5,O=C(NC(=S)NNC(=O)c1cccs1)c1ccco1,-1.93
6,CCNc1nc(SCCOc2ccccc2)nc(N(C)C)n1,-14.5
7,COC(=O)C1CCN(Cc2nnc(-c3ccccc3)o2)CC1,16.1
8,O=C(OCn1nnc2ccccc2c1=O)c1cc2ccccc2o1,1.98
9,Cc1ccn2c(-c3csc(NCc4ccccc4)n3)c(C)nc2c1.Cl,-72.4
10,Cc1oc(C(C)(C)C)c(CN2CCCC2)c1C(=O)O.Cl,13.4
11,CC(=O)[C@@]1(O)CC[C@H]2[C@@H]3C[C@H](C)C4=CC(=O)C=C[C@]4(C)[C@@]3(F)[C@@H](O)C[C@@]21C,21.9
12,COC(=O)c1cccc(NC(=O)Cc2ccc(OC)cc2)c1C,6.7
13,CCCCOc1ccc2c(c1)C(=O)c1cc(O)ccc1-2,7.75
14,CCn1c2ccccc2c2cc(/C=N/O)ccc21,40.6
15,CCN1/C(=C/c2cc[n+](C)cc2)C=Cc2cc(C)ccc21.[I-],-72.2
16,O=C(Nc1ccc2c(c1)OCO2)N1CCC(CO)(CC2CCCCO2)CC1 (stereo not drawn),24.6
17,COc1ccc(NS(=O)(=O)c2cccc3cccnc23)cc1OC,24.2
18,C/C(CC(=O)Nc1cccc2c1CCCC2)=N\NC(=O)COc1ccccc1,-14.9
19,COc1ccccc1N1CCN(C(=O)C2Cc3ccccc3CN2C(=O)c2ccco2)CC1 (stereo not drawn),-21
20,C=CCN1CCN(C(c2cc(OC)ccc2OC)c2nnnn2CC2CCCO2)CC1.Cl (stereo not drawn),9.57
21,O=C1Nc2cc(Cl)c(Cl)cc2N(O)N1c1ccc(Cl)cc1,-2.53
22,O=C(C1CCN(c2nnc(N3CCCC3=O)s2)CC1)N1CCN(c2cccc(C(F)(F)F)c2)CC1,-29.2
23,Cc1ccc(S(=O)(=O)c2nc(Nc3ccccc3N3CCOCC3)sc2Cl)cc1,12.2

row,Compound,"hERG current change (%, negative = inhibition) at 10uM [%]"
1,COc1ccc(CNC(=O)c2ccc(N3CCC4(CC3)CC(c3ccc(Cl)cc3)=NO4)c([N+](=O)[O-])c2)cc1,9.12
2,Cc1cccc(C)c1NC(=O)CN(C)C(=O)C1=COCCO1,13.6
3,Cc1[nH]c2ccccc2c1/C=N/NC(=O)c1cc(C(C)C)[nH]n1,12.6
4,Cc1noc(C)c1-c1nc(CSc2ccc(Cl)cc2)no1,-21.4
5,CCOC(=O)CSc1cc(=O)n(CC)c2ccccc12,-25.2
6,O=c1cc2c(nn1Cc1cccc([N+](=O)[O-])c1)-c1ccccc1CC2,12.4
7,CS(=O)(=O)OCCCCOS(C)(=O)=O,20.2
8,c1ccc2c(c1)nc1n2CN(Cc2ccc3c(c2)OCO3)CN1,-0.244
9,Cn1c(-c2cccs2)nc2ccccc21,-0.436
10,Nc1nonc1-n1nnc(C(=O)N/N=C/c2cccc(Cl)c2Cl)c1CN1CCCC1,16.1
11,COCC(=O)N1CCC(Oc2ccc(C(=O)N3CCSCC3)cc2)CC1,17.4
12,CC(=O)OCC(=O)[C@H]1CC[C@H]2[C@@H]3CC=C4C[C@@H](O)CC[C@]4(C)[C@H]3CC[C@]12C,-2.42
13,CC(C)(C)C(=O)CSc1nnc(Nc2ccccc2)s1,0.783
14,CC(C(=O)NC1CCCCCC1)n1cc([N+](=O)[O-])cn1 (stereo not drawn),4.74
15,CN(C)c1ccc(NC(=O)c2ccc(COc3cccc(Cl)c3)o2)cc1,0.95
16,CC1CCN(C(=O)CCNC(=O)Cn2cnc3sc4c(c3c2=O)CCCC4)CC1,-9.86
17,Cc1nnc(SCC(=O)Nc2cccc(S(=O)(=O)N(C)c3ccccc3)c2)s1,-32.2
18,CCOC(=O)C1CCCN(C(=O)c2ccc(-c3ccc([N+](=O)[O-])cc3)o2)C1 (stereo not drawn),-56.1
19,O=C(c1cc(Cl)ccc1Cl)N1CCN(c2ccccn2)CC1,-13.3
20,CC(/C=N/NC(=O)c1cc(-c2ccc3ccccc3c2)n[nH]1)=C\c1ccco1,-4.47
21,CCC(c1nnc(SCC(=O)Nc2cccc(S(N)(=O)=O)c2)n1-c1ccc(OC)cc1)N(C)C (stereo not drawn),13.3
22,O=c1[nH]c2ccccc2c(=O)n1CCCO,2.66
23,CC(=O)c1c(C)oc2ccc(N(C(=O)c3ccncc3)S(=O)(=O)c3ccccc3)cc12,-15

row,Compound,"hERG current change (%, negative = inhibition) at 10uM [%]"
1,CC(C)=N/N=C(\N)SCc1ccccc1,5.13
2,CC1=C(C(=O)OCCC#N)C(c2cc3c(cc2Br)OCO3)NC(=O)N1 (stereo not drawn),10.6
3,Cc1onc(-c2ccccc2)c1C(=O)NNC(=S)NC(=O)/C=C/c1cccs1,5.43
4,Cc1cc(C(F)(F)F)c(C#N)c(Sc2ccccc2)n1,9.44
5,CCCCNC(=O)C1(O)c2cc(Br)ccc2NC(=O)N1c1cccc(OC)c1 (stereo not drawn),7.42
6,COc1ccc(-c2ccc(SCc3cccnc3)nn2)cc1OC,29
7,c1ccc(CN2CCOCCOCCOCCOCC2)cc1,-7.69
8,O=C(CSc1ncccn1)N1CCN(Cc2ccccc2)CC1,9.31
9,O=C(COc1ccccc1Br)N1CCNC1=O,-5.29
10,CCSc1ccc(-c2nn(-c3ccccc3)cc2/C=C(/C#N)C(=O)NCCCOC)cc1,1.56
11,O=C(CCNC(=O)c1ccc(Br)cc1)Nc1nccs1,7.1
12,OCCCNc1ncnc2scc(-c3ccc(Cl)cc3)c12,-12.2
13,Cc1nc2ccccc2c(=O)n1NC(=O)C1CCCCC1,5.49
14,CNC(=O)c1nc[nH]c1C(=O)NC,12.7
15,CCCN(CCC)CCCNC(=O)CS(=O)Cc1nc(-c2ccc(OC)c(OC)c2)oc1C (stereo not drawn),-0.855
16,CCOC(=O)c1ccc(NC(=O)CCc2nc(-c3cccc(C)c3)no2)cc1,7.13
17,COc1cc(/C=C2/C(=O)N(c3ccc([N+](=O)[O-])cc3)N=C2N2CCOCC2)ccc1O,-42.2
18,CCC1CCCCN1CCCNC(=O)c1ccc2c(c1)NC(=O)CS2 (stereo not drawn),4.27
19,CCOc1ccc(N2CC(C(=O)NCc3ccc(F)cc3)CC2=O)cc1 (stereo not drawn),-27.3
20,C=CCOc1ccc(-c2n[nH]c(=S)o2)cc1,19.6
21,CCOC(=O)N1CCN(C(=O)c2ccc3c(c2)sc2nc(-c4ccc(OC)cc4)cn23)CC1,-20.4
22,COc1ccc(C2CC(=O)C3=C(C2)Nc2ccccc2NC3c2coc3ccccc3c2=O)cc1OC (stereo not drawn),7.3
23,CCc1nnc(NC(=O)CN2C(=O)c3ccccc3C2=O)s1,5.27

row,Compound,"hERG current change (%, negative = inhibition) at 10uM [%]"
1,O=C(O)C1CCN(C(=O)CSc2nc3ccccc3c(=O)n2Cc2ccccc2)CC1,1.51
2,Cn1nc(C(=O)N2CCOCC2)c2ccccc2c1=O,8.42
3,CN1CCN(C(=O)CN(C)S(=O)(=O)c2cc(Cl)ccc2Cl)CC1,4.23
4,CC(=O)NC(c1cc(Cl)c2ccccc2c1O)C(C)C (stereo not drawn),-7.33
5,CCOCCOc1cccc(C(=O)NC(C)c2ccc3ccccc3c2)c1 (stereo not drawn),16.4
6,CCOCCCN=Cc1c(O)n(Cc2ccccc2)c(=O)[nH]c1=O,-4.85
7,S=C(Nc1ccc(Cl)c(Cl)c1)NN1CCOCC1,7.13
8,Cc1ccc(C)c(S(=O)(=O)Nc2ccc(C(=O)NCCc3ccccn3)cc2)c1,10.2
9,Cc1cc(C)c2c(c1)/C(=N/NC(=O)c1ccc(O)cc1)CCC2,13.8
10,CC(C)(CN1CCN(Cc2ccccc2)CC1)NS(=O)(=O)c1ccccc1,-39.6
11,O=C(CNC(=O)C1COc2ccccc2O1)N/N=C\c1ccccc1Cl (stereo not drawn),4.64
12,O=C(CCCOc1ccccc1)N1CCN(S(=O)(=O)c2ccccc2)CC1,-4.56
13,O=C(CSC(=S)N1CCCC1)NCC(=O)Nc1ccc(F)c(F)c1,3.96
14,CC1CN(c2nc3ccccc3nc2C(C#N)C(=O)NC2CCCCC2)CC(C)O1 (stereo not drawn),3.43
15,Cc1ccccc1-n1ccnc1SCC(=O)NC1CCCC1,4.38
16,C=CCN1CN(S(=O)(=O)c2cccs2)c2nc3ccccc3nc21,-13.4
17,CCCCc1nc2sc3c(=O)n(N)cnc3c2c2c1CCCC2,10.4
18,COc1ccc(C2=C(C)CC(C)(C)NC2=O)cc1OC,21.8
19,O=C1c2nccnc2C(=O)N1c1ccc(F)cc1,15.4
20,N#CCSc1nc(-c2ccccc2)cs1,3.49
21,CCc1ccc(-c2ccc(C(=O)C(F)(F)F)[nH]2)cc1,9.61

# Reference: paper PMC4336329 (PLoS ONE, 2015)
